Where two headings read alike, the source gives them in different places.
Conditions: room temperature
Method: The maximum solubility of two nitrogen-containing HFE-Hydrides of the present invention was determined in a commonly employed carbonate-based solvent formulation (EC:EMC 3:7 by wt) used in lithium ion battery electrolytes and a similar electrolyte formulation containing 1.0M LiPF6 (a commonly employed electrolyte salt). The solubility of these nitrogen-containing HFE-Hydrides in the two battery electrolyte formulations was compared to the solubility of Novec-7300, a commercially available segregated HFE that has been previously studied as a battery electrolyte cosolvent. […] Thus, the nitrogen-containing HFE-Hydrides of the present invention represent promising battery electrolyte cosolvents that can provide improved formulation flexibility due to their enhanced solubility in commonly used electrolyte formulations.

With `COC(F)(F)C(F)N1C(F)(F)C(F)(F)OC(F)(F)C1(F)F` (stereo not shown) [Example 1, 2,2,3,3,5,5,6,6-octafluoro-4-(1,2,2-trifluoro-2-methoxy-ethyl)morpholine] the “Solubility of HFE cosolvent (Max Wt % HFE in electrolyte)” value (1.0M LiPF6 in EC:EMC 3:7 by Wt) was 22% Wt % and the “Solubility of HFE cosolvent (Max Wt % HFE in electrolyte)” value (EC:EMC 3:7 by Wt) was over 40% Wt %.

For `FC(F)C(F)(F)COC(F)(F)C(F)N1C(F)(F)C(F)(F)OC(F)(F)C1(F)F` (stereo not shown) [Example 2, 2,2,3,3,5,5,6,6-octafluoro-4-[1,2,2-trifluoro-2-(2,2,3,3-tetrafluoropropoxy)ethyl]morpholine], the “Solubility of HFE cosolvent (Max Wt % HFE in electrolyte)” value (1.0M LiPF6 in EC:EMC 3:7 by Wt) was 55% Wt % and the “Solubility of HFE cosolvent (Max Wt % HFE in electrolyte)” value (EC:EMC 3:7 by Wt) was over 40% Wt %.

Reference: patent US10308592B2 (priority 2014, dated 2019)
